How the values were obtained:
[1] = molecular target: T1, human interleukin 13 receptor alpha 2 (IL-13Rα2), biotinylated (human, UniProt Q14627 27-343, limits assumed, biotinylated (site not stated)); assay: SPR (Biacore T100), biotinylated receptor on SA chip, 1:1 kinetic fit
T1 construct: The methods give construct limits only for IL-13Rα1 and IL-4Rα1; For IL-13Rα2 they say only that the biotinylated receptor was captured on the SA chip; also called IL13RA2; CD213a2
T1 sequence (looked up): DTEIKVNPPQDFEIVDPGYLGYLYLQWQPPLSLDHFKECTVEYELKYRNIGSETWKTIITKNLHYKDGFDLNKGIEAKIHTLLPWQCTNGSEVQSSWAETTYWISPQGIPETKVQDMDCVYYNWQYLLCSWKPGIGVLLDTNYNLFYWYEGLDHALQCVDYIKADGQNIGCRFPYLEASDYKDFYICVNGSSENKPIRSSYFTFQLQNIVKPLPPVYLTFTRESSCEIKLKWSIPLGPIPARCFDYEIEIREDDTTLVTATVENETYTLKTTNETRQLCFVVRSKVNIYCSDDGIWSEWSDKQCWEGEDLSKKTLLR
Procedure: (§1) Surface Plasmon Resonance. SPR experiments were conducted on a Biacore T100 instrument. Experiments used a Biacore SA sensor chip (GE Healthcare). Biotinylated IL-13Rα1 and IL-13Rα2 receptors were captured at a low density (100-200 RU) and kinetic runs were conducted at 40 μL/min. An unrelated biotinylated protein was immobilized as a reference surface for the SA sensor chip with matching RU to the experimental surface. All data was analyzed using the Biacore T100 evaluation software version 2.0 with a 1:1 Langmuir binding model. Serial dilutions of unbiotinylated IL-13 variants in the running buffer [1×HBS-P (GE Healthcare)+0.5% BSA] were flowed over the chip and IL-13Rα1/IL-13Rα2 were regenerated by using one 60 second injections of 7 mM glycine (pH 3.0).

[2] = molecular target: T1, human interleukin 13 receptor alpha 2 …; assay: SPR, kinetic fit
Procedure: as §1

- Kd [1]: 1 pM
- koff [1]: 8.4e-05 s⁻¹
- kon [1]: 5e+07 M⁻¹ s⁻¹
- Kd [2]: 1 pM
- koff [2]: 8.4e-05 s⁻¹
- kon [2]: 5e+07 M⁻¹ s⁻¹
B1: wild-type human IL-13 (ligand)
chain: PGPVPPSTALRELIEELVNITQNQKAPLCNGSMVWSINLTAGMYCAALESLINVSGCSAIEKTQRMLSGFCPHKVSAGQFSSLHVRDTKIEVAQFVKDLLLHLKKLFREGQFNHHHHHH
notes: also called IL-13 wildtype; IL-13 wt

Reference: patent publication US20210214410A1 (Stanford University, published 2021)
